{"source": "paper PMC7819943", "about": "“Rice protein-binding microarrays: a tool to detect cis-acting elements near promoter regions in rice”", "note": "Some of the results follow.", "data": [{"target": "T1, OsWOX13 (Oryza sativa, UniProt Q5QMM3 1-267)", "T1 sequence": "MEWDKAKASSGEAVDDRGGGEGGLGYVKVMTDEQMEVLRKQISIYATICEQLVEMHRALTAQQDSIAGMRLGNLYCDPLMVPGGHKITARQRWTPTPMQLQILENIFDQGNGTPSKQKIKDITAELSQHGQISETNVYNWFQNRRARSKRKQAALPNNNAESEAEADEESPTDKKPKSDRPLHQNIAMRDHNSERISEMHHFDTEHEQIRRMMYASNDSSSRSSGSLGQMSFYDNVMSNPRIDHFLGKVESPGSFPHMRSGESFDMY", "experiment": "protein-binding microarray (RPBM); PBS, 2% BSA, 51.3 ng/ul salmon testes DNA, 50 uM zinc acetate, 200 nM TF, 25 C, 1 h; high values mean tight binding", "conditions": "protein: recombinant; tags: N-terminal polyhistidine and DsRed monomer fusion (pET32a); label: CyDye5-dUTP incorporated in the synthesized complementary strand; 3' TTTTT single-stranded linker to array surface; dsDNA, one strand shown", "how_it_was_run": "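An Axon 4000B scanner gave the binding signal as per-feature fluorescence intensity in arbitrary units. This followed washing of a custom Agilent array that had been incubated for 1 h at 25 °C with 200 nM protein in PBS, 2% BSA, salmon testes DNA and 50 µM zinc acetate. The proteins were transcription factors fused at the N-terminus to polyhistidine and DsRed, expressed in E. coli BL21-CodonPlus and purified on Ni–NTA.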", "values": [{"sequence": "ATAGATATAGATTTGGATTTGATTTGGATTTTGCAGCTCACGGAGTCACCTAGTGCAG", "binding signal": "12200 fluorescence intensity (a.u.)"}, {"sequence": "GCTGAAATATACTGATAGTTACAGACAAATATTCATTGGTCGGAGTCACCTAGTGCAG", "binding signal": "3510 fluorescence intensity (a.u.)"}, {"sequence": "CACATTTAATTCAAATTTCTGTTCGTCTTACAGTCAGCTACGGAGTCACCTAGTGCAG", "binding signal": "3420 fluorescence intensity (a.u.)"}, {"sequence": "ATAGATGTTAATGAATTTATACGTAATATGAAACGGAATGCGGAGTCACCTAGTGCAG", "binding signal": "6140 fluorescence intensity (a.u.)"}, {"sequence": "GAAAATTTAACGAAGCAAACAAACAAAGGTGGTTGACCTGCGGAGTCACCTAGTGCAG", "binding signal": "5110 fluorescence intensity (a.u.)"}, {"sequence": "CCTGAGTGAGTCAAACAGAATTGCTTCCGTGTACATCGAGCGGAGTCACCTAGTGCAG", "binding signal": "5660 fluorescence intensity (a.u.)"}, {"sequence": "AATCAATCAATTGCTGATCGTCTGACTTATATAAGAGGGACGGAGTCACCTAGTGCAG", "binding signal": "49000 fluorescence intensity (a.u.)"}, {"sequence": "TTTGATTCATTGTTAAATATACTTTCATGTACACATATAGCGGAGTCACCTAGTGCAG", "binding signal": "4200 fluorescence intensity (a.u.)"}, {"sequence": "TTTAAAATGGACGGTTAGATTTGAATGGTATATACTTGGTCGGAGTCACCTAGTGCAG", "binding signal": "8100 fluorescence intensity (a.u.)"}, {"sequence": "GCTCTGTATATTGATTTGGTCAGTTGGATTAGGTCAACGACGGAGTCACCTAGTGCAG", "binding signal": "4850 fluorescence intensity (a.u.)"}, {"sequence": "TTGACCTTAATTTGATTATGTGACAATTCAGCTAGTAAATCGGAGTCACCTAGTGCAG", "binding signal": "15800 fluorescence intensity (a.u.)"}, {"sequence": "ATCAGCAATCAGATCAGTACATCATCAAAGGGTGTGTAGTCGGAGTCACCTAGTGCAG", "binding signal": "4610 fluorescence intensity (a.u.)"}, {"sequence": "TCTAATTATATAATGTTTGTCTATTATAAAATATAGACAACGGAGTCACCTAGTGCAG", "binding signal": "23800 fluorescence intensity (a.u.)"}, {"sequence": "TCCTAGGTGATCTGGGTGATTGTGAGTGAGTTTTGTTTCGCGGAGTCACCTAGTGCAG", "binding signal": "4180 fluorescence intensity (a.u.)"}, {"sequence": "TATGAATGCATTATGATTACTATTTGCTAATCATAAGTGGCGGAGTCACCTAGTGCAG", "binding signal": "11000 fluorescence intensity (a.u.)"}, {"sequence": "ATAATTCACTAATTGAATTTACATAACGGATTTCTAAAGACGGAGTCACCTAGTGCAG", "binding signal": "33700 fluorescence intensity (a.u.)"}, {"sequence": "GTGCATAAATTTATTAAAATAGAAAATTAATGCAGTGCCACGGAGTCACCTAGTGCAG", "binding signal": "17100 fluorescence intensity (a.u.)"}, {"sequence": "ATGAATAAAATGATATAATTGAATCGTGGATTGGATAAACCGGAGTCACCTAGTGCAG", "binding signal": "19000 fluorescence intensity (a.u.)"}, {"sequence": "ATCCTGCATTCATTACAGTTAGATTGCAAACTAGATGCATCGGAGTCACCTAGTGCAG", "binding signal": "3670 fluorescence intensity (a.u.)"}, {"sequence": "TTATGTGATCAATCATAAAATTCAGATATAAGATACCATACGGAGTCACCTAGTGCAG", "binding signal": "10000 fluorescence intensity (a.u.)"}, {"sequence": "CCACAGCAGACTGGCTAGTAATTACTACTCCCTCCGTTTCCGGAGTCACCTAGTGCAG", "binding signal": "8200 fluorescence intensity (a.u.)"}, {"sequence": "GGCAGATACAAAGACAATTAATAAACAGACTTTTAAGTTGCGGAGTCACCTAGTGCAG", "binding signal": "3220 fluorescence intensity (a.u.)"}, {"sequence": "GATGATGTAATTGAAATTGTAGTAGTGCATATAATACTCCCGGAGTCACCTAGTGCAG", "binding signal": "42300 fluorescence intensity (a.u.)"}, {"sequence": "TTATATAAATAGGCTATTAGATTATCTATAGATAATTTAGCGGAGTCACCTAGTGCAG", "binding signal": "4900 fluorescence intensity (a.u.)"}, {"sequence": "TTATTCCTGAGTAATTTAAACTGGGAGGCCCAGCTAACTGCGGAGTCACCTAGTGCAG", "binding signal": "3200 fluorescence intensity (a.u.)"}, {"sequence": "GTCCAATCACTTACGTTTCACGTAAGCGTCCGATCTGGCACGGAGTCACCTAGTGCAG", "binding signal": "11100 fluorescence intensity (a.u.)"}, {"sequence": "AACGAGAGTAGCTCAATTGATTATTGTTACTCACGATAGACGGAGTCACCTAGTGCAG", "binding signal": "3430 fluorescence intensity (a.u.)"}, {"sequence": "TCCCATACAAATGGATTGTTCAATCATATAATTGCTGCATCGGAGTCACCTAGTGCAG", "binding signal": "9900 fluorescence intensity (a.u.)"}, {"sequence": "TTGTAATGTAGAATATTAATTAGATATAGTTAATCTCTAACGGAGTCACCTAGTGCAG", "binding signal": "4860 fluorescence intensity (a.u.)"}, {"sequence": "ACCAAACTTTCAAATTTAAGTGAACTAAATACACCCTTGACGGAGTCACCTAGTGCAG", "binding signal": "3560 fluorescence intensity (a.u.)"}, {"sequence": "TTTAAATGAAATGAGTTGCATATCACTATAAGAGTTTGTTCGGAGTCACCTAGTGCAG", "binding signal": "5620 fluorescence intensity (a.u.)"}, {"sequence": "ATGATATAAATGATGAGAGAGAAGAGCAGCGGGTTACAGACGGAGTCACCTAGTGCAG", "binding signal": "3950 fluorescence intensity (a.u.)"}, {"sequence": "AAGAATTAATAGACAAAGTAATTTTATATTTCTTATGGCTCGGAGTCACCTAGTGCAG", "binding signal": "28100 fluorescence intensity (a.u.)"}, {"sequence": "CAATGATTGGACTAAAGAAAATGCTAATATTAATGGTATGCGGAGTCACCTAGTGCAG", "binding signal": "52300 fluorescence intensity (a.u.)"}, {"sequence": "CCATGATTAAATAATGTTGGTTGAACGTTAATGCATGTACCGGAGTCACCTAGTGCAG", "binding signal": "40000 fluorescence intensity (a.u.)"}, {"sequence": "CTGGAGCTAATTAATGGTGCATTTTGCACGGTCTTTGTGCCGGAGTCACCTAGTGCAG", "binding signal": "5940 fluorescence intensity (a.u.)"}, {"sequence": "GTGCCGTTAGTGCTAATCAAGGCAATCAATAAAAGATCAGCGGAGTCACCTAGTGCAG", "binding signal": "27400 fluorescence intensity (a.u.)"}, {"sequence": "TCAATCCATCAGCATTAGCAATTGCCTATAACATGTCCAGCGGAGTCACCTAGTGCAG", "binding signal": "3310 fluorescence intensity (a.u.)"}, {"sequence": "TTTTAATGTTCGAAAATTTAATTATTCACCTTTTCAAGTTCGGAGTCACCTAGTGCAG", "binding signal": "3390 fluorescence intensity (a.u.)"}, {"sequence": "AAATATATTAATTAGTGGTAATATATCTTGTGAGATGCATCGGAGTCACCTAGTGCAG", "binding signal": "15700 fluorescence intensity (a.u.)"}, {"sequence": "CCACTTGACAGCCATTATAGCTAGCATGGTAGAAGTAGAACGGAGTCACCTAGTGCAG", "binding signal": "5400 fluorescence intensity (a.u.)"}, {"sequence": "TGTATTGAATTATTAATTTGGTTTTCTATCTCATCAAGGGCGGAGTCACCTAGTGCAG", "binding signal": "11600 fluorescence intensity (a.u.)"}]}]}
